Data from patent publication US5776720A, “Assay reagent” (priority 1995, dated 1998).

Columns and labels:
granulocytes = experiment: Ratio of disease to normal enzyme activity, inflammatory diseases (Table 5), granulocytes; assay type: cell-based, human
monocytes = experiment: Ratio of disease to normal enzyme activity, inflammatory diseases (Table 5), monocytes; assay type: cell-based, human
[1] = Inflam. Bowel Dis., MONOCYTES section (column head Lymphs)

Compound	Ratio disease/normal (granulocytes; Dermatomyositis, Grans)	Ratio disease/normal (granulocytes; Inflam. Bowel Dis., […])	Ratio disease/normal (granulocytes; Lupus, Grans)	Ratio disease/normal (monocytes; Dermatomyositis, Monos)	Ratio disease/normal (monocytes; [1])	Ratio disease/normal (monocytes; JRA, Monos)	Ratio disease/normal (monocytes; Kawasaki's Dis., Monos)	Ratio disease/normal (monocytes; Lupus, Monos)	Ratio disease/normal (monocytes; Rheumatic Fever, Monos)	Ratio disease/normal (granulocytes; JRA, Grans)	Ratio disease/normal (granulocytes; Kawasaki's Dis., Grans)	Ratio disease/normal (granulocytes; Rheumatic Fever, Grans)
NCC(=O)Nc1ccc2c(c1)Oc1cc(NC(=O)CN)ccc1C21OC(=O)c2ccccc21 [GLY, (Gly)2 Rho 110]	1.12	1.78	1.42									
(Val-Lys)2 Rho 110 (modified) [VK--M]	0.16	0.64	0.89	3.45	1.41	3.49	0.25	11.37	8.67	9.49	0.72	0.48
(carbobenzyloxycarbonyl-Gly-Pro)2 Rho 110 (modified) [Z--GP--M]	2.76	2.68	1.94	3.05	3.33	1.79	4.47	1.92	2.99	1.46	2.83	2.98
